Measured values: the supplement of paper PMC9046079
Structures can show the parent of a compound that is named as a salt. ± gives the standard deviation of the averaged measurements. The list shows a part of the results.

How the values were obtained:
[1] = system: murine small intestinal organoids (ENR+CD Paneth differentiation); test: cellular ATP (CellTiter-Glo 3D) relative to plate median (log10 fold change); higher = more viable cells; details: 6 d
[2] = system: murine small intestinal organoids (ENR+CD Paneth differentiation); test: carbachol-stimulated secreted lysozyme activity relative to plate median (log10 fold change); higher = more Paneth cell lysozyme secretion; details: 6 d, carbachol 10 µM
[3] = system: murine small intestinal organoids (ENR+CD Paneth differentiation); test: basal (non-stimulated) secreted lysozyme activity relative to plate median (log10 fold change); higher = more Paneth cell lysozyme secretion; details: 6 d
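For basal (non-stimulated) secreted lysozyme activity relative to plate median in this document: ISC-enriched organoid precursors grown as 2.5D pseudo-monolayer on Matrigel, compound given on day 0 and day 3, plate values LOESS-normalized before median fold change, three murine donors.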
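For cellular ATP (CellTiter-Glo 3D) relative to plate median in this document: 2.5D pseudo-monolayer culture of ISC-enriched organoids partly embedded atop Matrigel, compound added on day 0 and again on day 3, per-plate LOESS correction before median fold change.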

SMILES | cellular ATP (log10) ([1]; 0.08 µM) | cellular ATP (log10) ([1]; 0.4 µM) | cellular ATP (log10) ([1]; 2 µM) | cellular ATP (log10) ([1]; 10 µM) | carbachol-stimulated secreted lysozyme activity (log10) ([2]; 0.08 µM) | carbachol-stimulated secreted lysozyme activity (log10) ([2]; 0.4 µM) | carbachol-stimulated secreted lysozyme activity (log10) ([2]; 2 µM) | carbachol-stimulated secreted lysozyme activity (log10) ([2]; 10 µM) | basal (log10) ([3]; 0.08 µM) | basal (log10) ([3]; 0.4 µM) | basal (log10) ([3]; 2 µM) | basal (log10) ([3]; 10 µM)
O=C(Nc1cc(C(F)(F)F)ccc1N1CCCCC1)c1ccncc1 | 0.359 ± 0.45 | 0.497 ± 0.15 | 0.501 ± 0.25 | 0.567 ± 0.25 | 0.0365 ± 0.12 | 0.152 ± 0.048 | 0.134 ± 0.061 | 0.101 ± 0.08 | 0.0915 ± 0.15 | 0.0862 ± 0.029 | 0.104 ± 0.039 | 0.0639 ± 0.034
CC(C=CC(=O)NO)=CC(C)C(=O)c1ccc(N(C)C)cc1 (stereo unspecified) [Trichostatin A (TSA)] | -0.52 ± 1 | -0.472 ± 0.41 | -0.352 ± 0.38 | -0.602 ± 0.4 | -0.206 ± 0.069 | -0.135 ± 0.28 | -0.105 ± 0.28 | -0.3367 ± 0.00068 | -0.113 ± 0.062 | -0.116 ± 0.12 | -0.118 ± 0.1 | -0.178 ± 0.071
O=C(Nc1ccccc1-c1cn2c(CN3CCNCC3)csc2n1)c1cnc2ccccc2n1 | -0.132 ± 1.3 | 0.3 ± 0.28 | 0.226 ± 0.23 | -0.451 ± 0.46 | -0.0687 ± 0.28 | 0.0374 ± 0.063 | 0.124 ± 0.0036 | -0.163 ± 0.13 | 0.0668 ± 0.23 | 0.0881 ± 0.14 | 0.0529 ± 0.07 | -0.0308 ± 0.059
NC1(c2ccc(-c3nc4ccn5c(=O)[nH]nc5c4cc3-c3ccccc3)cc2)CCC1 | 0.0707 ± 0.097 | -0.0232 ± 0.13 | -0.178 ± 0.23 | -0.54 ± 0.13 | 0.0392 ± 0.11 | 0.149 ± 0.34 | -0.265 ± 0.015 | -0.442 ± 0.096 | 0.0236 ± 0.029 | -0.0632 ± 0.072 | -0.182 ± 0.051 | -0.236 ± 0.086
CCNC(=O)c1noc(-c2cc(C(C)C)c(O)cc2O)c1-c1ccc(CN2CCOCC2)cc1 | -1.18 ± 0.6 | -1.34 ± 0.57 | -1.14 ± 0.88 | -1.27 ± 0.42 | -0.275 ± 0.048 | -0.239 ± 0.036 | -0.282 ± 0.022 | -0.265 ± 0.014 | -0.144 ± 0.074 | -0.154 ± 0.045 | -0.138 ± 0.055 | -0.153 ± 0.063
CC(C)c1noc(N2CCC(COc3ccc(-c4ccc(S(C)(=O)=O)cc4)nc3)CC2)n1 | 0.161 ± 0.13 | 0.192 ± 0.22 | 0.224 ± 0.057 | 0.196 ± 0.15 | 0.179 ± 0.069 | 0.144 ± 0.054 | 0.0925 ± 0.1 | 0.0807 ± 0.18 | 0.0782 ± 0.07 | 0.0498 ± 0.056 | 0.0276 ± 0.083 | 0.0199 ± 0.12
CCN(CC)CCCC(C)Nc1nc(C)cc(Nc2ccc3nc(C)cc(N)c3c2)n1 (stereo unspecified) | 0.0431 ± 0.082 | 0.17 ± 0.25 | 0.117 ± 0.45 | 0.324 ± 0.54 | 0.0401 ± 0.0044 | 0.0315 ± 0.12 | -0.044 ± 0.098 | -0.0646 ± 0.083 | 0.0805 ± 0.043 | 0.0436 ± 0.11 | 0.0581 ± 0.13 | 0.00921 ± 0.086
N#CC(=C(/N)Sc1ccccc1N)/C(C#N)=C(\N)Sc1ccccc1N | -0.618 ± 0.98 | -0.452 ± 0.69 | -0.439 ± 0.71 | -0.533 ± 0.82 | -0.000683 ± 0.35 | -0.0237 ± 0.15 | -0.0822 ± 0.14 | 0.0293 ± 0.28 | 0.0139 ± 0.18 | 0.00714 ± 0.12 | -0.0361 ± 0.092 | -0.00844 ± 0.18
COc1cc(CCc2cc(NC(=O)c3ccc(N4CC(C)NC(C)C4)cc3)n[nH]2)cc(OC)c1 (stereo unspecified) | 0.16 ± 0.11 | 0.101 ± 0.14 | -0.00995 ± 0.29 | -0.0615 ± 0.22 | 0.14 ± 0.082 | 0.0164 ± 0.18 | 0.0476 ± 0.15 | -0.0898 ± 0.029 | 0.0999 ± 0.057 | 0.0594 ± 0.11 | 0.068 ± 0.072 | -0.0381 ± 0.051
CCC(=O)NCC[C@@H]1CCc2ccc3c(c21)CCO3 [Ramelteon] | -0.00297 ± 0.16 | 0.223 ± 0.23 | -0.138 ± 0.45 | 0.0788 ± 0.22 | 0.0172 ± 0.17 | 0.182 ± 0.21 | 0.0459 ± 0.047 | 0.0971 ± 0.074 | 0.0158 ± 0.1 | 0.0686 ± 0.12 | 0.00523 ± 0.034 | 0.0318 ± 0.069
Cc1cc(NC(=O)Nc2ccc(N(C)C)cc2)c2cc(F)cc(F)c2n1 | 0.253 ± 0.47 | 0.234 ± 0.3 | 0.338 ± 0.28 | 0.174 ± 0.16 | -0.0488 ± 0.56 | 0.178 ± 0.23 | 0.12 ± 0.13 | -0.00412 ± 0.092 | 0.0766 ± 0.26 | 0.127 ± 0.081 | 0.0944 ± 0.085 | 0.156 ± 0.25
CC(C)n1c(/C=C/C(O)CC(O)CC(=O)O)c(-c2ccc(F)cc2)c2ccccc21 (stereo unspecified) [Fluvastatin Sodium] | -0.161 ± 0.17 | -0.482 ± 0.16 | -1.11 ± 0.18 | -1.76 ± 0.76 | 0.0412 ± 0.029 | -0.222 ± 0.066 | -0.344 ± 0.1 | -0.343 ± 0.0039 | 0.112 ± 0.14 | -0.146 ± 0.085 | -0.203 ± 0.11 | -0.159 ± 0.093
CN(C)Cc1ccc(-c2nc3cccc4c3n2CCNC4=O)cc1 | -0.0117 ± 0.41 | -0.0693 ± 0.092 | 0.00488 ± 0.21 | -0.0208 ± 0.34 | 0.149 ± 0.046 | -0.023 ± 0.12 | -0.111 ± 0.22 | -0.187 ± 0.19 | 0.152 ± 0.084 | 0.0359 ± 0.06 | 0.0319 ± 0.061 | -0.197 ± 0.086
CN1C(=O)C(Cc2c[nH]c3ccccc23)NC1=S (stereo unspecified) [Necrostatin-1] | 0.102 ± 0.19 | 0.168 ± 0.41 | 0.0111 ± 0.31 | 0.137 ± 0.5 | 0.0193 ± 0.019 | -0.0489 ± 0.1 | 0.0116 ± 0.074 | 0.252 ± 0.086 | 0.0602 ± 0.099 | 0.02 ± 0.062 | 0.154 ± 0.23 | 0.057 ± 0.061
CN(C)CCOc1ccc(/C(=C(/CCCl)c2ccccc2)c2ccccc2)cc1 [Toremifene Citrate] | -0.095 ± 1 | 0.0552 ± 0.54 | -0.751 ± 1.1 | -1 ± 1.1 | -0.159 ± 0.34 | 0.123 ± 0.25 | 0.0571 ± 0.24 | -0.248 ± 0.17 | -0.0335 ± 0.15 | 0.0258 ± 0.12 | 0.0172 ± 0.23 | -0.149 ± 0.12
NC(=O)Nc1sc(-c2ccc(F)cc2)cc1C(N)=O | -0.228 ± 0.24 | 0.0524 ± 0.24 | 0.0254 ± 0.12 | -0.316 ± 0.42 | -0.178 ± 0.23 | -0.0249 ± 0.067 | 0.00649 ± 0.099 | -0.146 ± 0.3 | -0.101 ± 0.21 | -0.00768 ± 0.097 | -0.0475 ± 0.0029 | -0.0723 ± 0.11
O=C(Nc1ccccc1Br)N[C@@H]1CCN(c2ccc(C(F)(F)F)cn2)C1 | 0.121 ± 0.24 | -0.0693 ± 0.099 | -0.052 ± 0.063 | -0.0924 ± 0.1 | -0.0237 ± 0.0041 | -0.0688 ± 0.13 | -0.115 ± 0.021 | -0.0222 ± 0.0007 | 0.0723 ± 0.13 | -0.051 ± 0.052 | -0.0656 ± 0.089 | -0.0119 ± 0.0033
Cc1[nH]c2ccccc2c1CCNC(=O)c1cccs1 | 0.202 ± 0.1 | -0.00432 ± 0.24 | -0.201 ± 0.31 | -0.169 ± 0.42 | 0.138 ± 0.054 | -0.0482 ± 0.11 | 0.0843 ± 0.47 | -0.162 ± 0.1 | 0.0386 ± 0.13 | -0.0491 ± 0.052 | -0.0658 ± 0.085 | -0.108 ± 0.017
